# In PubChem BioAssay AID602310 (National Center for Advancing Translational Sciences (NCATS), 2012):
# Among all 410,000 compounds or so, about 310 (0.076%) were called active. The inconclusive results got no clear call from the source; some entries with a clear call stand among them for comparison. The call rests on the fitted dose curve; in most records, active means well fitted curve in the direction sought with a large enough effect; inconclusive means small, poorly fitted or top-dose-only effect; inactive means flat fitted curve, though single readings scatter. Potencies of inconclusive entries are doubtful fits and often do not repeat.
# Target: DNA dC->dU-editing enzyme APOBEC-3G (Homo sapiens) (UniProt Q9HC16)
# Test: qHTS for Inhibitors of Vif-A3G Interactions: qHTS; further: nearly all actives have a fitted effect of over 60% in size;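 on activity, negative = active: hits raise eYFP signal because A3G escapes Vif-driven loss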
# Settings: HeLa A3G-eYFP + Vif (tagged APOBEC3G with the HIV-1 protein that degrades it), YFP fluorescence, overnight; series mostly up to 46.1 µM; activity, negative = active: at the top concentration
# Method in brief: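 HeLa cells stably expressing Vif and C-terminally eYFP-tagged A3G, seeded overnight at 37 deg C, then exposed to compound by pintool overnight at 37 deg C. Rise in yellow fluorescence (Ex 488/Em 500-530, Acumen) marks blocked Vif-driven A3G degradation.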
# On the % scale 0 is the no-effect control and ±100 the full control effect; potency means the concentration at half of the fitted maximal effect; tags describe the fitted curve by direction and shape.
# Chain of UniProt Q9HC16 (Q9HC16 whole entry, looked up): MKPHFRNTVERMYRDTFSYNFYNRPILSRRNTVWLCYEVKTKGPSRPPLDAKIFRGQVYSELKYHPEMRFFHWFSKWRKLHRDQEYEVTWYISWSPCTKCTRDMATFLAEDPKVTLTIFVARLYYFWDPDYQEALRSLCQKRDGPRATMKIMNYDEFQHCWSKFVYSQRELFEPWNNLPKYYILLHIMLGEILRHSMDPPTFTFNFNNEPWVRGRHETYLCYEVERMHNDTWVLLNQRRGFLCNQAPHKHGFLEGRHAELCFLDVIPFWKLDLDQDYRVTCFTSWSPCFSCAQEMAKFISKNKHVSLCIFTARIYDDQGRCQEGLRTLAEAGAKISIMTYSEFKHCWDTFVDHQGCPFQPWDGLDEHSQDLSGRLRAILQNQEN
SMILES,Potency,"activity, negative = active"
CCOC(=O)CSc1nc(-c2ccc(OCC)cc2)cc(C(F)(F)F)c1C#N,"inconclusive: 20 µM [inhibitor, single point]",–
COc1cccc(/C=C/C(=O)c2c(O)cc(C)oc2=O)c1O,"inconclusive: 35.5 µM [inhibitor, single point]",–
COc1ccccc1-c1cc(-c2ccccc2)nc(SC(C(N)=O)c2ccccc2)c1C#N (configuration not stated),"inconclusive: 20 µM [inhibitor, partial curve, poor fit]",–
O=C(N/N=C/c1ccc([N+](=O)[O-])o1)c1sc2ccccc2c1Cl,"inconclusive: 17.8 µM [inhibitor, single point]",–
CCCOc1ccc(C2c3c(-c4ccccc4O)n[nH]c3C(=O)N2CCc2ccccc2)cc1OCC (configuration not stated),"inconclusive: 17.8 µM [inhibitor, single point]",–
N#C/C(=C\c1ccc(-c2ccccc2[N+](=O)[O-])o1)C(N)=O,"inconclusive: 35.5 µM [inhibitor, single point]",–
O=C(NCc1nc2ccccc2[nH]1)c1ccc(S(=O)(=O)N2CCCC2)cc1,–,inactive: -4.51%
Clc1ccc(-c2nnn3c2nc(NC2CCCCC2)c2ccccc23)cc1,–,inactive: -2.77%
CC1CCc2ccc(F)cc2N1S(=O)(=O)c1cccs1 (configuration not stated),"inconclusive: 31.6 µM [inhibitor, single point]",–
Cc1ccccc1NC(=O)Cc1nc(COC(=O)c2ccc(S(C)(=O)=O)c([N+](=O)[O-])c2)cs1,"inconclusive: 22.4 µM [inhibitor, single point]",–
CC(/C=N/NC(=O)c1cc(-c2ccc(Cl)cc2)nc2ccccc12)=C\c1ccco1,"inconclusive: 0.631 µM [inhibitor, full curve, poor fit]",–
Cn1c2ccccc2c2cc(/C=N/NC(=O)c3ccc(O)cc3O)ccc21,"inconclusive: 22.4 µM [inhibitor, single point]",–
COc1cc(/C=C(\C#N)c2nc3ccc(C)cc3[nH]2)ccc1OCc1ccc(C)cc1,–,inactive: -25.3%
O=C(Nc1ccc2c(c1)OCCO2)c1ccc(Cl)cc1,–,inactive: 0.962%
COc1cc2ccccc2cc1C(=O)N/N=C/c1ccc2c(c1)OCO2,"inconclusive: 2 µM [inhibitor, partial curve, poor fit]",–
Cc1ccc(CNC(=O)Cc2ccc(-n3c(=O)[nH]c4ccsc4c3=O)cc2)cc1,"inconclusive: 1.78 µM [inhibitor, partial curve, poor fit]",–
Cc1ccc(Cl)cc1NC(=S)NN,"inconclusive: 25.1 µM [inhibitor, single point]",–
COc1ccc(C(=O)c2c[nH]c(C(=O)NCc3ccco3)c2)cc1,–,inactive: -4.27%
Cc1ccc(NC(=O)C(Cc2c[nH]c3ccccc23)NC(=O)OC(C)(C)C)c(C)c1 (configuration not stated),"inconclusive: 35.5 µM [inhibitor, single point]",–
CCc1ccc(C(=O)c2cn(CC(=O)Nc3ccc4c(c3)OCO4)c3ccc(CC)cc3c2=O)cc1,"inconclusive: 2.82 µM [inhibitor, full curve, poor fit]",–
COc1ccc(S(=O)(=O)N(C)C[C@H]2Oc3ccc(NC(=O)Cc4ccccc4)cc3C(=O)N([C@H](C)CO)C[C@@H]2C)cc1,–,inactive: -4.95%

SMILES,Potency,"activity, negative = active"
O=C1Nc2ccc3c(c2C1=Cc1cc2c(cc1Br)OCO2)OCO3,"inconclusive: 1.12 µM [inhibitor, full curve, poor fit]",–
Cc1ccc(C)c2nc3sc(C(=O)N4CCCc5ccccc54)c(N)c3cc12,"inconclusive: 3.98 µM [inhibitor, single point]",–
COc1ccc(C2NC(=S)NC3=C2CCCC3=C2SCCS2)cc1 (configuration not stated),"inconclusive: 35.5 µM [inhibitor, single point]",–
O=C(NCC1CCCO1)c1cccc2c1C(=O)c1ccc(N3CCC(Cc4ccccc4)CC3)cc1S2(=O)=O (configuration not stated),"inconclusive: 22.4 µM [inhibitor, partial curve, poor fit]",–
O=C1NC(=Nc2cccc(O)c2)S/C1=C\c1cccc([N+](=O)[O-])c1,"inconclusive: 22.4 µM [inhibitor, single point]",–
C[N+]1(C2CCC3CCC2C3O)CCCC1 (configuration not stated),–,inactive: 0.429%
CCOc1cc(/C=C(\C#N)C(=O)Nc2cccc(C(=O)O)c2)cc(Br)c1OC(=O)c1ccc(OC)cc1,"inconclusive: 35.5 µM [inhibitor, single point]",–
CC(=O)c1ccc(Nc2cc(C)nc3c(C)cccc23)cc1,"inconclusive: 1.78 µM [inhibitor, full curve, poor fit]",–
O=C(NN=Cc1c(O)ccc2ccccc12)c1ccncc1,"inconclusive: 35.5 µM [inhibitor, single point]",–
COc1ccc(CN2CCC3CC2c2cc(-c4cccc(C)c4)ccc23)cc1 (configuration not stated),–,inactive: -3.07%
Oc1[nH]c2ccc(Br)cc2c1N=NC(=S)N1CCOCC1,"inconclusive: 25.1 µM [inhibitor, single point]",–
O=C(O)c1cccc(-n2c(/C=C/c3ccccc3)nc3ccccc3c2=O)c1,"inconclusive: 35.5 µM [inhibitor, single point]",–
COCC(=O)Nc1cccc2ccccc12,–,inactive: 3.29%
CN(C)c1ccc(C=NNC(=O)c2cccc3ccccc23)c(Cl)c1,"inconclusive: 2.82 µM [inhibitor, partial curve]",–
CCC(C)(C)C1CCC2(CC1)NC(=O)N(CC(=O)N1CCN(C(=O)c3ccco3)CC1)C2=O (configuration not stated),–,inactive: 2.82%
CC1CCc2c(sc(Nc3nc4c(F)cccc4s3)c2C(N)=O)C1 (configuration not stated),"inconclusive: 22.4 µM [inhibitor, single point]",–
CCc1ccc(N2CC(C(=O)N/N=C/c3ccccc3)CC2=O)cc1 (configuration not stated),–,inactive: -6.75%
COc1ccc(NC(=S)NCCN2CCC(C)CC2)cc1Cl,–,inactive: 2.71%
COc1c(O)cc2oc(-c3ccc(O)c(O)c3)cc(=O)c2c1O,"inconclusive: 35.5 µM [inhibitor, single point]",–
N#Cc1c(Nc2ccccc2)[n+]([O-])c2ccc(Cl)cc2[n+]1[O-],"inconclusive: 7.08 µM [inhibitor, partial curve]",–
COc1ccc(-c2cc(-c3ccccc3)c(C#N)c(SCC(O)CS(=O)(=O)Cc3ccc(Cl)cc3)n2)cc1 (configuration not stated),–,inactive: -1%
